This is one part of the list.
B1: PhoQ; a variant is named by its letters at X, in order, P23837 (parent)
chain: MKKLLRLFFPLSLRVRFLLATAAVVLVLSLAYGMVALIGYSVSFDKTTFRLLRGESNLFYTLAKWENNKLHVELPENIDKQSPTMTLIYDENGQLLWAQRDVPWLMKMIQPDWLKSNGFHEIEADVNDTSLLLSGDHSIQQQLQEVREDDDDAEMTHSVAVNVYPATSRMPKLTIVVVDTIPVELKSSYMVWSWFIYVLSANLLLVIPLLWVAAWWSLRPIEALAKEVRELEEHNRELLNPATTRELTSLVRNLNRLLKSERERYDKYRTTLTDLTHSLKTPLXXLQXXLRSLRSEKMSVSDAEPVMLEQISRISQQIGYYLHRASMRGGTLLSRELHPVAPLLDNLTSALNKVYQRKGVNISLDISPEISFVGEQNDFVEVMGNVLDNACKYCLEFVEISARQTDEHLYIVVEDDGPGIPLSKREVIFDRGQRVDTLRPGQGVGLAVAREITEQYEGKIVAGESMLGGARMEVIFGRQHSAPKDE

Variants of: B1
Assay: enrichment ratio after two sorts for PhoP signalling (ratio (wild type AVST 3.29)); higher = more functional
Conditions: with PhoP (E. coli)

Row | Variant | enrichment ratio
1 | FSAL | 0.667
2 | HAGY | ≤ 0.25
3 | EVEL | ≤ 0.25
4 | FFHH | 0.731
5 | IAMD | ≤ 0.25
6 | NPTI | ≤ 0.25
7 | TSQD | ≤ 0.25
8 | LYFP | 0.276
9 | DWAR | ≤ 0.25
10 | PFRA | ≤ 0.25
11 | YCFP | ≤ 0.25
12 | IPHW | ≤ 0.25
13 | LQMR | ≤ 0.25
14 | WNDC | ≤ 0.25
15 | WIPE | ≤ 0.25
16 | MSWE | ≤ 0.25
17 | VTIQ | ≤ 0.25
18 | HHYR | ≤ 0.25
19 | SLRF | ≤ 0.25
20 | SMVS | 4.14
21 | GNHS | ≤ 0.25
22 | FWPY | ≤ 0.25
23 | YESG | 0.306
24 | IIQV | ≤ 0.25

Row | Variant | enrichment ratio
25 | MDHD | ≤ 0.25
26 | QWLN | ≤ 0.25
27 | DWAD | ≤ 0.25
28 | EGTK | ≤ 0.25
29 | LMII | ≤ 0.25
30 | FLLW | ≤ 0.25
31 | RLIY | ≤ 0.25
32 | AAVV | ≤ 0.25
33 | WFCR | ≤ 0.25
34 | ARRK | ≤ 0.25
35 | PGKP | ≤ 0.25
36 | PFVY | ≤ 0.25
37 | VNQA | ≤ 0.25
38 | PNED | ≤ 0.25
39 | LSPT | ≤ 0.25
40 | TKPL | ≤ 0.25
41 | RFTH | ≤ 0.25
42 | GWES | ≤ 0.25
43 | PTWD | ≤ 0.25
44 | ILNL | ≤ 0.25
45 | PVYD | ≤ 0.25
46 | PYST | ≤ 0.25
47 | VIRS | ≤ 0.25
48 | FSMA | 0.794

Row | Variant | enrichment ratio
49 | SNAF | 8.34
50 | SNFN | ≤ 0.25
51 | DLYE | ≤ 0.25
52 | FVHH | ≤ 0.25
53 | SMPL | ≤ 0.25
54 | WEYR | ≤ 0.25
55 | QMWD | ≤ 0.25
56 | TLSC | 8.65
57 | LKGM | ≤ 0.25
58 | TAAM | 13.6
59 | GWGQ | ≤ 0.25
60 | GYPN | ≤ 0.25
61 | GFHY | ≤ 0.25
62 | GWDD | ≤ 0.25
63 | RCLM | ≤ 0.25
64 | MHSC | ≤ 0.25
65 | PYAQ | ≤ 0.25
66 | ECWI | ≤ 0.25
67 | KQHS | ≤ 0.25
68 | QNQS | ≤ 0.25
69 | EHYH | ≤ 0.25
70 | YASL | ≤ 0.25
71 | TFWV | ≤ 0.25
72 | EWMS | ≤ 0.25

Row | Variant | enrichment ratio
73 | DFQW | ≤ 0.25
74 | FLFE | ≤ 0.25
75 | ICPP | ≤ 0.25
76 | IRLD | ≤ 0.25
77 | RPKL | ≤ 0.25
78 | YWGF | ≤ 0.25
79 | ATYK | ≤ 0.25
80 | VRGV | ≤ 0.25
81 | HRRG | ≤ 0.25
82 | PVQS | ≤ 0.25
83 | NDNG | ≤ 0.25
84 | LGWV | ≤ 0.25
85 | VTGR | ≤ 0.25
86 | TTEY | ≤ 0.25
87 | NRVY | ≤ 0.25
88 | PWSF | ≤ 0.25
89 | YWRA | ≤ 0.25
90 | IWTM | ≤ 0.25
91 | VVMG | ≤ 0.25
92 | LQFA | ≤ 0.25
93 | STCR | 4.44
94 | IMLE | ≤ 0.25
95 | GVLP | ≤ 0.25
96 | WTYE | ≤ 0.25

Row | Variant | enrichment ratio
97 | CVLI | ≤ 0.25
98 | VDLG | ≤ 0.25
99 | RRLW | ≤ 0.25
100 | FTMA | ≤ 0.25
101 | VGTA | ≤ 0.25
102 | HCFH | ≤ 0.25
103 | GHFS | ≤ 0.25
104 | MNCV | 5.24
105 | MIFK | 1.24
106 | VYFM | ≤ 0.25
107 | AFNY | ≤ 0.25
108 | YDNA | ≤ 0.25
109 | PSQK | ≤ 0.25
110 | LYYN | ≤ 0.25
111 | MPSC | ≤ 0.25
112 | AWQT | ≤ 0.25
113 | AWCP | ≤ 0.25
114 | FIQA | ≤ 0.25
115 | PPKR | ≤ 0.25
116 | PCPP | ≤ 0.25
117 | ADTT | ≤ 0.25
118 | DMHQ | ≤ 0.25
119 | NKDC | ≤ 0.25
120 | TMNK | ≤ 0.25

Row | Variant | enrichment ratio
121 | KHTV | ≤ 0.25
122 | NQQS | ≤ 0.25
123 | LEDW | ≤ 0.25
124 | KWGY | ≤ 0.25
125 | YQFL | ≤ 0.25
126 | WPYN | ≤ 0.25
127 | QPKI | ≤ 0.25
128 | QFYG | ≤ 0.25
129 | QSFL | 7.67
130 | DLMN | ≤ 0.25
131 | VCVV | ≤ 0.25
132 | VQVN | ≤ 0.25
133 | RKKS | ≤ 0.25
134 | SYHR | ≤ 0.25
135 | AKHI | ≤ 0.25
136 | RDKK | ≤ 0.25
137 | QKYD | ≤ 0.25
138 | MCAN | 22.5
139 | FHVC | ≤ 0.25
140 | FRAC | ≤ 0.25
141 | EMGD | ≤ 0.25
142 | PQSL | ≤ 0.25
143 | AACA | 7.7
144 | DTFF | ≤ 0.25

Row | Variant | enrichment ratio
145 | LLQV | ≤ 0.25
146 | VNWW | ≤ 0.25
147 | GKMI | ≤ 0.25
148 | SFKI | ≤ 0.25
149 | TAHI | 11
150 | ANRN | ≤ 0.25
151 | MPPV | ≤ 0.25
152 | SICK | 14.6
153 | LGDW | ≤ 0.25
154 | REDA | ≤ 0.25
155 | VWDG | ≤ 0.25
156 | RPYK | ≤ 0.25
157 | QSAC | ≤ 0.25
158 | VEIA | ≤ 0.25
159 | VDKF | ≤ 0.25
160 | NCSK | ≤ 0.25
161 | HMCD | ≤ 0.25
162 | NSYC | ≤ 0.25
163 | KGVA | ≤ 0.25
164 | LCFW | ≤ 0.25
165 | MDYT | ≤ 0.25
166 | TNMH | 15.7
167 | HICN | ≤ 0.25
168 | PLIW | ≤ 0.25

Row | Variant | enrichment ratio
169 | SENW | ≤ 0.25
170 | LING | ≤ 0.25
171 | FYAD | ≤ 0.25
172 | SNGQ | 6.34
173 | FDQP | ≤ 0.25
174 | YETQ | ≤ 0.25
175 | VNSL | 2.36
176 | LRFT | ≤ 0.25
177 | VMIM | ≤ 0.25
178 | DGGP | ≤ 0.25
179 | SSVD | ≤ 0.25
180 | PFYH | ≤ 0.25
181 | VPDS | ≤ 0.25
182 | ALWY | ≤ 0.25
183 | DKSY | ≤ 0.25
184 | DVHH | ≤ 0.25
185 | EFGY | ≤ 0.25
186 | KAQH | ≤ 0.25
187 | GMHC | ≤ 0.25
188 | AFLP | ≤ 0.25
189 | EYTM | ≤ 0.25
190 | EGMF | ≤ 0.25
191 | MEGG | ≤ 0.25
192 | PRSN | ≤ 0.25

Row | Variant | enrichment ratio
193 | STIR | ≤ 0.25
194 | MELH | 6.92
195 | VIST | ≤ 0.25
196 | MRHM | ≤ 0.25
197 | PAPF | ≤ 0.25
198 | PVCL | ≤ 0.25
199 | DEMA | ≤ 0.25
200 | WHSR | ≤ 0.25
201 | YVPM | ≤ 0.25
202 | VLHE | ≤ 0.25
203 | VWWR | ≤ 0.25
204 | GESN | ≤ 0.25
205 | LFYI | ≤ 0.25
206 | PKWH | ≤ 0.25
207 | IPYW | ≤ 0.25
208 | TRKG | ≤ 0.25
209 | ISGC | ≤ 0.25
210 | KDAP | ≤ 0.25
211 | YINL | ≤ 0.25
212 | VQAV | ≤ 0.25
213 | PLKN | ≤ 0.25
214 | IIAY | ≤ 0.25
215 | DPLS | ≤ 0.25
216 | PEQM | ≤ 0.25

Row | Variant | enrichment ratio
217 | MNGV | 5.07
218 | YSNL | ≤ 0.25
219 | NKPP | ≤ 0.25
220 | VGED | ≤ 0.25
221 | HVPS | ≤ 0.25
222 | EGQE | ≤ 0.25
223 | DIPP | ≤ 0.25
224 | SQWP | ≤ 0.25
225 | GVCE | ≤ 0.25
226 | NGEP | ≤ 0.25
227 | GVFP | ≤ 0.25
228 | IHGI | ≤ 0.25
229 | AMYQ | ≤ 0.25
230 | SAVQ | 9.3
231 | SQYA | ≤ 0.25
232 | PCGK | ≤ 0.25
233 | ISHI | ≤ 0.25
234 | IKWM | ≤ 0.25
235 | VELE | ≤ 0.25
236 | VAAE | ≤ 0.25
237 | PGVN | ≤ 0.25
238 | CYYN | ≤ 0.25
239 | YDLP | ≤ 0.25
240 | VSDK | ≤ 0.25

Row | Variant | enrichment ratio
241 | HGFF | ≤ 0.25
242 | TIQT | 12.7
243 | PQTI | ≤ 0.25
244 | SGTR | ≤ 0.25
245 | SLES | ≤ 0.25
246 | TTFA | ≤ 0.25
247 | IHAI | ≤ 0.25
248 | FMIP | 1.25
249 | ILYR | ≤ 0.25
250 | YAHQ | ≤ 0.25
251 | NTDF | ≤ 0.25
252 | WTGC | ≤ 0.25
253 | RCKL | ≤ 0.25
254 | IEEP | ≤ 0.25
255 | DYMF | ≤ 0.25
256 | PLLP | ≤ 0.25
257 | TADT | ≤ 0.25
258 | MNRW | ≤ 0.25
259 | FPGW | ≤ 0.25
260 | RTSP | ≤ 0.25
261 | NLWA | ≤ 0.25
262 | EGGI | ≤ 0.25
263 | IESV | ≤ 0.25
264 | VFWE | ≤ 0.25

Row | Variant | enrichment ratio
265 | FAGG | ≤ 0.25
266 | IKCG | ≤ 0.25
267 | NFMV | ≤ 0.25
268 | QIDH | ≤ 0.25
269 | LVAT | ≤ 0.25
270 | TRGH | ≤ 0.25
271 | SMTF | 10.2
272 | PINS | ≤ 0.25
273 | QLWT | ≤ 0.25
274 | RQSW | ≤ 0.25
275 | MLQA | ≤ 0.25
276 | ATGH | 5.03
277 | HKQR | ≤ 0.25
278 | PWSS | ≤ 0.25
279 | STKK | ≤ 0.25
280 | RAAT | ≤ 0.25
281 | ENHA | ≤ 0.25
282 | WEFK | ≤ 0.25
283 | QPWD | ≤ 0.25
284 | VSYH | ≤ 0.25
285 | HMTS | ≤ 0.25
286 | YWAQ | ≤ 0.25
287 | HLLT | ≤ 0.25
288 | GTKW | ≤ 0.25

Row | Variant | enrichment ratio
289 | YYCM | ≤ 0.25
290 | FERY | ≤ 0.25
291 | CHPI | ≤ 0.25
292 | HSAA | ≤ 0.25
293 | ILNG | ≤ 0.25
294 | TMMR | 5.23
295 | RWFK | ≤ 0.25
296 | PSLE | ≤ 0.25
297 | QKKD | ≤ 0.25
298 | NHYG | ≤ 0.25
299 | QNKV | ≤ 0.25
300 | FIVR | ≤ 0.25
301 | KHYV | ≤ 0.25
302 | LKTW | ≤ 0.25
303 | DPGW | ≤ 0.25
304 | FLPW | ≤ 0.25
305 | DVFD | ≤ 0.25
306 | TVVQ | ≤ 0.25
